Test results published in publication PMC7097893.

Target: p10-flu-BP (synthetic construct)

Question: Which Kd does the source give for galectin-3 (no sequence given) here?
Answer: 1.16 µM and 4.74 µM

“And” between values parts separate entries of the source, which are not always exact repeats. Equal entries are not always repeated.
